In the RNAGym collection of RNA variant scans (doi:10.1073/pnas.2313332121):
This sample is rich in variants without activity.

B1: TPR 5TU (parent)
chain: GGAUCUUCUCGAUCUAACAAAAAAGACAAAUCUGCCACAAAGCUUGAGAGCAUCUUCGGAUGCAGAGGCGGCAGCCUUCGGUGGCGCGAUAGCGCCAACGUUCUCAACUAUGACACGCAAAACGCGUGCUCCGUUGAAUGGAGUUUAUCAUG

Variants of: B1
Assay: polymerase ribozyme fitness, log enrichment relative to wild type (log ratio); higher = more active; in vitro selection for triplet polymerase activity
Procedure, shortened: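 Streptavidin-bead capture of gel-excised extended constructs, followed by RT-PCR, closed a single triplicate in vitro selection round. That round began by annealing PCR-built, transcribed mutant libraries of each subunit of a heterodimeric triplet polymerase ribozyme with a biotinylated primer, the partner subunit and triplets, then incubating them frozen at −7 °C. After Illumina sequencing of inputs and outputs, genotypes needed ≥10 input reads and ≥1 read per output. Fitness is the base-2 logarithm of genotype enrichment over wild-type enrichment, using inverse-variance-weighted replicate averages.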

**Q.** With GGAUCUUCUAGAUCUAACAAAAAAGACAAAUCUGCCACAAAGCUUGAGAGCAUCUUCGGAUGCAGAGGCGGCAGCCUUCGGUGGCGAGAUAGCGCUAACGUUCUCAACUAUGACACGCAAAACGCGUGCUCCGUUGAAUGGCGUUUAUCAUG [C10A C87A C96U A142C] as the variant, how does the “polymerase ribozyme fitness (log ratio)” value read?
**A.** ≤ -4.2

**Q.** For GGAUCUUCUAGAUUUAACAAAAAAGUCAAGUCUGCCACAAAGCUUGAGAGCAUCUUCGGAUGCAGAGGCGGCAGCCUUCGGUGACGCGAUAGCGCCAACGUUCUCAACUAUGACACGCAAAACGCGUGCUCCGUUGAAGGGUGUUUAUCAUG [C10A C14U A26U A30G G84A U139G A142U], which “polymerase ribozyme fitness (log ratio)” value is on record?
**A.** ≤ -4.2

**Q.** With GGAUCUUCUAGAUCUAACAAAAAAGACAAAUCUGCCACAAAGCUUGAGAGCAUCUUCGGAUGCAGAGGCGGCAGCCUUCGGUGGGGCGAUAGCGCCAACGUUCUCAACUAUGAGACGCAAAACGCGUGUUCCGUGGAAUGGAGUUUAUCAUG [C10A C85G C114G C129U U135G] as the variant, how does the “polymerase ribozyme fitness (log ratio)” value read?
**A.** ≤ -4.2

**Q.** Which “polymerase ribozyme fitness (log ratio)” value does the source give for GGAUCUUCUAGAUCUAACAAAAAAGACAAAUCUGCAACAAAGCUUGAGAGCAUCUUCGGAUGCAGAGGCGGCAGCCUUCGGUGGCACGAUAGCGCCAACGUUCUCAACUAUGACACGCAAAACGCGUGCUCCGUUGAAUGGAGUUUAUCAUG [C10A C36A G86A] here?
**A.** ≤ -4.2

**Q.** With GGAUCUUCUAGAUCUAACAAAAAAGACAAAUCUGCCACAAAGCUUGAGAGCAUCUUCGGAUGCAGAGGCGGCAGCCUUCGGUGGCGCGAUGGUGCCAACGUUCUCAACUAUGACACGCAAAACGCGUGCUCCGUUGAAUGGAGGUUAUCAUG [C10A A91G C93U U144G] as the variant, how does the “polymerase ribozyme fitness (log ratio)” value read?
**A.** ≤ -4.2

**Q.** With GGAUCUUCUAGAUCUAACAAAAAAGAUAAAUCUGCGACAAAGCUUGAGAGCAUCUUCGGAUGCAGAGGCGGCCGCCUUCGAUGGCGCGAUAUCGCCAACGUUCUCGACUAUGACACGCAAAACGCGUGCUACGUUGAAUGGAGUUUAUCAUG [C10A C27U C36G A73C G81A G92U A106G C131A] as the variant, how does the “polymerase ribozyme fitness (log ratio)” value read?
**A.** ≤ -4.2

**Q.** Which “polymerase ribozyme fitness (log ratio)” value does the source give for GGAUCUUCUAGAUCUAACAAAAAAGACAAAUCUGCCACAAAGCUUGAGAGCAUCUUCGGAUGCAGAGGCGGCAGCCUUCGGUGGUGCGAUAGCGCCAACGUUCUCAACUAUGACACGCAAAACGCGUGCUCCCAUGAAUGGAGUUGAUCAUG [C10A C85U G133C U134A U146G] here?
**A.** ≤ -4.2

**Q.** With GGAUCUUCUAGAUCUAACAAAAAAGAUAAAUCUGCCACAAAGCUCGAAAGCAUCAUCGGGUGCAGAGGCGGCAGCCUUCGGUGGCGCGAUAGCGCCAACGUGCUCAACUAUGACACGCAAAACGCGUGCUCCGUUGAAUGGACUUGAUCAUG [C10A C27U U45C G48A U55A A60G U102G G143C U146G] as the variant, how does the “polymerase ribozyme fitness (log ratio)” value read?
**A.** ≤ -4.2

**Q.** With GGAUCUUCUAGAUCUAACAAAAAAGACAAAUCUGCCACAAAGCUUGAGAGCAUCUUCGGAUGUAGAAGCGGCAGCCCUCGGUGGCGCGAUAACGCCAACGUUCUCAACUAUGACACGCAAAACGCGCGCUCCGUGGAAUGGAGUUUAUCAUG [C10A C63U G67A U77C G92A U127C U135G] as the variant, how does the “polymerase ribozyme fitness (log ratio)” value read?
**A.** ≤ -4.2

**Q.** Which “polymerase ribozyme fitness (log ratio)” value does the source give for GGAUCUUCUAGAUCUAACAAAAAAGACAAAUCUGCCACAAAGCUUGAGAGCAUCUUCGGAUGCAGAGGCGGCAGCCUUCGGUGGCGCGAUAGUGCCAACGUUCUCAACUAUGACACGCAAAACGCGUGCUCCGUUGAAUCGAGUUUAUCAUG [C10A C93U G140C] here?
**A.** ≤ -4.2

**Q.** For GGAUCUUCUAGAUCUAACAAAAAAGACAAAUCUGCCACAAAGCUUGAGAGCAUCUUCGGAUGCAGAGGCGGCAGCCUUCGGUGGCGUGAUAGCGCCAACGUUCUCAACUAUGACACGCAAAACGCGUGCUCCGUUGAAUGGAGUUUAUCAUG [C10A C87U], which “polymerase ribozyme fitness (log ratio)” value is on record?
**A.** -3.47

**Q.** With GGAUCUUCUAGAUUUAACAAAAAAGACAAUUCUGCCACAAAGCUUGAGAGAAUCUUGGGAUGCAGAGGCGGCAGCCUUCGGUGACGCGAUAGCGCCAACGUUCUCAACUAUGACACGCAAAACGCGUGCUCCGUUGAAUGGAGUUUAUCAUG [C10A C14U A30U C51A C57G G84A] as the variant, how does the “polymerase ribozyme fitness (log ratio)” value read?
**A.** ≤ -4.2

**Q.** With GGAUCUUCUAGAUCUAACAAAAAAGACAAAUCUGCCACAAAGCUUGAGAGCAUCUUCGGAUGCAGAGGCGGCAGCCUUCGGUGGCGUGAUAGCGCCAACGUUCUCAACUAUGACAGGUAAAACGCGCGCUCCGUUGAAUGGGGUUUAUCAUG [C10A C87U C116G C118U U127C A142G] as the variant, how does the “polymerase ribozyme fitness (log ratio)” value read?
**A.** ≤ -4.2

**Q.** Which “polymerase ribozyme fitness (log ratio)” value does the source give for GGAUCUUCUAGAUCUAACAAAAAAGACAAAUCUGCCACAAAGCUUGAGAGCAUCUUCGGAUGCAGAGGCGGCAGCCUUCGGUGGCGCGAUAGCGCAAACGUUCUCAGCUAUGACACGCAAAACGCGUGCUCCGUUGAAUGGAGUUUAUCAUG [C10A C96A A107G] here?
**A.** ≤ -4.2

**Q.** Which “polymerase ribozyme fitness (log ratio)” value does the source give for GGAUCUUCUAGAUCUAACAAAAAAGAUAAAUCUGCCACAAAGCUUGAGAGCAUCUUCGGAUGCAGAGGCGGCAGCCUUCGGUGGCGCGAUAGCGCCAACGUUCUCAACUAUGACACGCUAAACGCGUGCUCCGUUGAGUGGAGUUUAUCAUG [C10A C27U A119U A138G] here?
**A.** ≤ -4.2

**Q.** With GGAUCUUCUAGAUCUAACAAAAAAGACAAAUAUGCCACAAAGCUUGAGAGCAUUUUCGGAUGCAGAGGCGGCAGCCUUCGGUGGCGCGAUAGCGCCAACGUUCUCAACUAUGACAAGCAAAACGCGUGCUCCGUUGAAUGGAAUUUAUCAUG [C10A C32A C54U C116A G143A] as the variant, how does the “polymerase ribozyme fitness (log ratio)” value read?
**A.** ≤ -4.2

**Q.** For GGAUCUUCUAGAUCUAACAAAAAAGACAAAUCUGCCACAAAGCUUGAGAGCAUCUUCGGAUGCAGAGGCGGCAGCCUUCGGUGGGGCGAUAGCGCCAACGUUCUCAACUAUGACACGCAAAACGAGUGCUCCGUUGAAUGGAGUUUAUCAUG [C10A C85G C125A], which “polymerase ribozyme fitness (log ratio)” value is on record?
**A.** ≤ -4.2

**Q.** Which “polymerase ribozyme fitness (log ratio)” value does the source give for GGAUCUUCUAGAUCUAACAAAAAAGACAAAUCUGCCACAAAGCUUGAGAGCAUAUUUGGAUGCAGAGGCGGCAGCCUUCGGUGGCGCGAUAGCACCAACGUUCUCAACUAUGACACGCAAAACGCGUGCUCCGUUGAAUGGAGUUUAUCAUG [C10A C54A C57U G94A] here?
**A.** ≤ -4.2

**Q.** For GGAUCUUCUAGAUCUAACAAAAAAGACAAAUCUGCCACAAAUCUUGAGAGCAACUUCGGAUGCAGAGGCGGCAGCGUUCGGUGGCGCGAGAGCGCCAACGUUCUCAACUAUGACACGCAAAACGCGUGCUCCGUUGAAUGGAGUUUAUCAUG [C10A G42U U53A C76G U90G], which “polymerase ribozyme fitness (log ratio)” value is on record?
**A.** ≤ -4.2
